We go through 5 molecules from patent publication US20220380473A1, “ANTI-GAL3 ANTIBODIES AND USES THEREOF” (TrueBinding, Inc., priority 2019, published 2022).

Substitutions are numbered along the chain they refer to. Entries after “also recorded” stand apart in the source; their conditions may differ.

B1: 846T.1H2: murine anti-Gal3 antibody (antibody, V domains shown)
VH: QIQLVQSGPELKKPGETVKISCKASGYTFTNYGMNWVKQAPGKGLKWMGWINTNTGEPTYAEEFKGRFAFSLETSASTAYLQINNLKNEDTATYFCATGGGNWDFDYWGQGTTLTVSS
VL: DVVMTQTPLTLSVTIGQPASISCKSSQSLLYSNGKTYLNWLLQRPGQSPKRLIYLVSKLDSGVPDRFTGSGSGTDFTLKISRVEAEDLGVYYCVQGTHFPQTFGGGTKLEIK
B2: 13H12.2F8: murine anti-Gal3 antibody (antibody, V domains shown)
VH: QIQLVQSGPELKKPGETVKISCKASGYTFTTYGMSWVKQAPGKGLKWMGWINTYSGVPTYADDFKGRFAFSLETSASTAYLQINNLKNEDTATYFCAVPYEYDGAYWGQGTLVTVSA
VL: B1 VL with L30F, Y31H, N33D, V94W, Q101L, G105A, I111M
modifications: VH of 13H12.2F8; VL of 13H12.2F8
notes: murine anti-Gal3 antibody
B3: 4G2.2G6: murine anti-Gal3 antibody (antibody, V domains shown)
VH: QIQLVQSGPDLKKPGETVKISCKASGYTFTTYVMSWVKQAPGKDLKWMGWINTHSGVPTYADDFKGRFDFSLETSANTAFLQINNLKNEDTATYFCTRDGNDGDAMDNWGQGTSVTVSS
VL: B1 VL with S32T, N33D, N39S, L41F, T68S, V94L, G96S, Q101L, G105A, I111V
B4: 3B11.2G2: murine anti-Gal3 antibody (antibody, V domains shown)
VH: QIQLVQSGPELKKPGETVKISCKTSGYKFKTYVMSWVKQAPGKALKWMGWINTYSGVPTYADDFKGRFAFSLETSASTAYLEIINLKNEDTATYFCARDGNYGDPMDYWGQGTSVTVSS
VL: B1 VL with T14A, S32T, T68S, V94L, G96S, Q101L, G105A, I111L
B5: 14H10.2C9: murine anti-Gal3 antibody (antibody, V domains shown)
VH: B2 VH with S35G, G44D, N84S, A97S, V98T
VL: B1 VL with L30F, Y31D, N33D, V94W, Q101L, G105A, I111M

T1 sequence (P17931 2-250 limits assumed): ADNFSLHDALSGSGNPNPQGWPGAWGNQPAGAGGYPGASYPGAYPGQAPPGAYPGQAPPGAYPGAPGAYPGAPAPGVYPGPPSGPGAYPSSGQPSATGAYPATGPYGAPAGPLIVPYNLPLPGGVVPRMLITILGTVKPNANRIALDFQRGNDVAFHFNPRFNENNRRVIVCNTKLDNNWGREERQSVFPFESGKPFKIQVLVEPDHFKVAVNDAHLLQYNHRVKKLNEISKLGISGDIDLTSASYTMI
Chain of human Gal3-His (P17931 whole entry): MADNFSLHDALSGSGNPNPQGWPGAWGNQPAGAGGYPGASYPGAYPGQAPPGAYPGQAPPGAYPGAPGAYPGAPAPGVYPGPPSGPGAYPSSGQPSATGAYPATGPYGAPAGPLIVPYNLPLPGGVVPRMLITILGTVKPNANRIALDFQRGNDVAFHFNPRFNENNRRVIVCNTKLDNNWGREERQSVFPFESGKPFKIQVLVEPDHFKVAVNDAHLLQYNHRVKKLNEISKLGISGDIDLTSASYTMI

For one experiment, the target named is Galectin-3 (Homo sapiens, UniProt P17931). Kind of experiment: SPR (BiacoreT200) binding affinity. The following applies: 25° C., read-out: hGal-3 KD. Here is the method: GAL3-binding antibodies were evaluated for their binding affinity by SPR. Kinetics experiments were performed on BiacoreT200 at 25° C. in high performance mode. Ligand proteins, purified antibodies were captured onto a CM5 chip coupled with anti-human Fc or anti-mouse Fc antibody, three antibodies at a time onto flow cell #2, 3, and 4, respectively, while flow cell #1 was used as reference. The analyte Galectin-3 in HBS-EP buffer was injected over all four flow cells at concentrations of 100, 50, 25, 12.5, 6.25, 3.125 and 0 nM at a flow rate of 30 μL/min. The complex was allowed to associate and dissociate for 240 and 300 seconds, respectively. The surfaces were regenerated with a 30 second injection of 10 mM Glycine pH 1.7 (flow rate 30 μL/min). The data were fit to a simple 1:1 interaction model using the global data analysis option available within BiacoreT200 Evaluation software V2.0. The affinity of Gal3 monoclonal antibodies was confirmed to be […] 30 nM for all antibodies studied (Table 24.1). Antibodies with affinity less than 2E-7 were selected for further characterization.
Chain of Galectin-3 (P17931 whole entry): as above
As for B1, the Kd (commonly a measure of binding affinity in units of concentration) was determined as 2.82 nM.

For the molecule B2, the Kd came to 6.07 nM.

For the molecule B3, the Kd was below 1 nM.

For the molecule B4, the dissociation constant Kd was below 1 nM.

With B5, the Kd was found to be 0.562 nM.

The next experiment addresses T1, association of GAL3 and TIM3 (Homo sapiens, UniProt P17931).
T1 construct: full-length human Galectin-3 protein (Acro Biosystems, GA3-H5129); linker-spaced 6-histidine tag; purchased Acro Biosystems GA3-H5129 (Gal3); TM3-H5229 (TIM-3)
Kind of experiment: GAL3-TIM3 blocking ELISA (Examples 24, 27). It is filed as binding. The following applies: 3 ug/mL antibody. The procedure: Positively scoring wells were evaluated for the ability to block association of GAL3 and TIM3. To identify GAL3-targeted antibodies with the ability to block the interaction of GAL3 and TIM3, purified GAL3 and TIM3 proteins were incubated in the presence of GAL3-immunization hybridoma supernatants described above, or without antibody, and protein interaction was evaluated by ELISA. Human Galectin-3 protein (Acro Biosystems, GA3-H5129) was diluted in PBS (Corning, 21-030-CM) to a concentration of 3 μg/ml and added to the wells of a 96-well ELISA plate (Thermo Fisher, 44-2404-21). After incubating the plate at 4° C. overnight, the plate was washed three times with PBST (PBS with 0.05% Tween 20 [VWR, 0777]). The plate was then blocked for an hour with 2% BSA (EMD Millipore, 126609) in PBST at room temperature with gentle rocking. Thereafter, the 2% BSA in PBST was discarded and antibody or inhibitor (3-fold dilutions beginning at 20 μg/ml, 60 μg/ml, or 180 μM) in 2% BSA in PBST was added to the wells. Afterwards, 2 μg/ml of human TIM3 (Aero Biosystems, TM3-H5229) in 2% BSA in PBST was added to the antibody or inhibitor in the wells in a 1:1 ratio. The plate was incubated for an hour at room temperature with gentle rocking. Thereafter, the plate was washed three times with PBST, and 0.3 μg/ml of human TIM3 Biotinylated Antibody (R&D Systems, BAF2365) in 2% BSA in PBST was added to the wells. The plate was incubated for an hour with gentle rocking and then washed three times with PBST. Avidin-HRP (1:2000) was then added to the wells. The plate was incubated at room temperature for an hour with gentle rocking and then washed three times with PBST. TMB substrate (Thermo Scientific, 34029) was then added to each well. The reaction was stopped with 1M HCl (JT Baker, 5620-02) and read using a plate reader (Molecular Devices) at absorbance of 450 nm.
Background: ELISA stands for enzyme-linked immunosorbent assay.
B1: the “GAL3-TIM3 Blocking @ 3 ug/mL” value turned out to be 81%.

Turning to B2, the “GAL3-TIM3 Blocking @ 3 ug/mL” value is on record as 57%.

Regarding B3, the “GAL3-TIM3 Blocking @ 3 ug/mL” value turned out to be 48%.

Consider B4, for which the “GAL3-TIM3 Blocking @ 3 ug/mL” value is 33%.

B5: the “GAL3-TIM3 Blocking @ 3 ug/mL” value is given as 44%.

The next experiment relates to hGal3 peptide. Kind of experiment: Gal3 peptide library ELISA (Example 25). The note with it: hGal3 peptide No. bound. It is filed as binding, human. Here is the method:
To identify the epitopes to which Gal3 antibodies with and without Gal3-TIM3 blocking activity bound, a library of 20 amino acid peptides representing portions of Gal3, summarized in Table 24.1, was produced and the ability to bind Gal3 antibodies was evaluated by ELISA.
At least 2 μg/ml of hGal3 peptide in 50 μl of PBS or 0.1 μg/ml of full-length human Gal3 protein (GenScript) and human Galectin-3 protein (Acro Biosystems, GA3-H5129) were diluted in PBS (Corning, 21-030-CM) to concentrations of at least 2 μg/ml or 0.1 μg/ml, respectively, and added to the wells of a 96-well ELISA plate (Thermo Fisher, 44-2404-21). After incubating the plate at 4° C. overnight, the plate was washed three times with PBST (PBS with 0.05% Tween 20 [VWR, 0777]). The plate was then blocked for an hour with 2% BSA (EMD Millipore, 126609) in PBST at room temperature with gentle rocking. Thereafter, the 2% BSA in PBST was discarded and human Galectin-3 hybridoma supernatants or antibodies were diluted in 2% BSA in PBST to concentrations of at least 0.1 μg/ml and added to the wells. The plate was incubated for an hour at room temperature with gentle rocking and then washed three times with PBST. Afterwards, Goat Anti-Mouse IgG-HRP (Jackson ImmunoResearch, 115-036-1461) or Goat Anti-Rat IgG HRP (abcam, ab205720) diluted in 2% BSA in PBST (1:4000) were added to the wells. The plate was incubated for 30 minutes to 1 hour at room temperature with gentle rocking and then washed three times with PB ST. TMB substrate (Thermo Scientific, 34029) was then added to each well. The reaction was stopped with 1M HCl (JT Baker, 5620-02) and read using a plate reader (Molecular Devices) at absorbance of 450 nm.
On to B3, for which the “Epitope Mapping” value stood at 4.

Staying with this experiment, now noted: peptide array ELISA.
For the molecule B1, the Gal3 peptide bound result is listed as “peptide 6”.

Consider B2, for which the Gal3 peptide bound entry is reported as “peptide 6; also recorded: peptide 7”.

Regarding B3, the Gal3 peptide bound entry was “peptide 4”.

On to B4, for which the Gal3 peptide bound result was “peptide 4”.

On to B5, for which the Gal3 peptide bound entry was “peptide 6; also recorded: peptide 7”.

Still in this experiment, the particulars now being: peptide array ELISA; listed as 3B11.2D2.
Consider B4, for which the Gal3 peptide bound result is “peptide 6”.

A further experiment has as its target human Gal3-His (Homo sapiens, UniProt P17931). Kind of experiment: Antibody binning by biolayer interferometry (Gator). It is filed as binding. The following applies: antibody competition. The procedure:
To determine whether Gal3-binding antibodies with Gal3-TIM3 blocking activity bind to the same or overlapping regions of the Gal3 molecule, antibody binning assays were performed to assess the ability of antibodies to simultaneously bind Gal3. Amine-reactive probes were loaded onto a Gator biosensor (Probe Life, Palo Alto, Calif.), equilibrated in dH20 for 60 seconds, dipped into 100 μl EDC 0.2M/NHS 0.05M activation buffer for 30 seconds, then dipped into a solution of […] human Gal3-His in 10 mM NaOAc buffer, pH 5 until binding was saturated, and quenched in 1 M ethanolamine pH 8.5 for 300 seconds. Following Gal3-His loading, tips were dipped in 20 μg/mL saturating antibody, then successively dipped into 5 μg/mL competing antibody.
(In general: Biolayer interferometry detects binding as a change in optical thickness at a sensor tip.)
In turn, B1 registered a Bin of 1.

B2 yielded a Bin of 2.

As to B3, the Bin is reported as 6.

Take B5: the Bin was 2.
